Data: PubChem BioAssay AID504333 (National Center for Advancing Translational Sciences (NCATS), 2011)
Among all 360,000 compounds or so, about 16,000 (4.4%) were called active. Inconclusive means that the source gave no clear call. Such entries were picked first, then a sample of the others. The call rests on the fitted dose curve; in most records, active means well fitted inhibition curve with a large enough effect; inconclusive means small, poorly fitted or top-dose-only effect; inactive means no such curve, though single readings can be large or run the other way. Potencies of inconclusive entries are doubtful fits and often do not repeat.

Each compound was assayed against Bromodomain adjacent to zinc finger domain protein 2B (Homo sapiens) (UniProt Q9UIF8) (assay: qHTS Assay for Inhibitors of BAZ2B). Settings: AlphaScreen BAZ2B-H3K14Ac peptide displacement; activity change, negative = inhibition: at 114 µM (top of the series) unless noted.
UniProt Q9UIF8, sequence (Q9UIF8 whole entry, looked up, the tested form may be a part): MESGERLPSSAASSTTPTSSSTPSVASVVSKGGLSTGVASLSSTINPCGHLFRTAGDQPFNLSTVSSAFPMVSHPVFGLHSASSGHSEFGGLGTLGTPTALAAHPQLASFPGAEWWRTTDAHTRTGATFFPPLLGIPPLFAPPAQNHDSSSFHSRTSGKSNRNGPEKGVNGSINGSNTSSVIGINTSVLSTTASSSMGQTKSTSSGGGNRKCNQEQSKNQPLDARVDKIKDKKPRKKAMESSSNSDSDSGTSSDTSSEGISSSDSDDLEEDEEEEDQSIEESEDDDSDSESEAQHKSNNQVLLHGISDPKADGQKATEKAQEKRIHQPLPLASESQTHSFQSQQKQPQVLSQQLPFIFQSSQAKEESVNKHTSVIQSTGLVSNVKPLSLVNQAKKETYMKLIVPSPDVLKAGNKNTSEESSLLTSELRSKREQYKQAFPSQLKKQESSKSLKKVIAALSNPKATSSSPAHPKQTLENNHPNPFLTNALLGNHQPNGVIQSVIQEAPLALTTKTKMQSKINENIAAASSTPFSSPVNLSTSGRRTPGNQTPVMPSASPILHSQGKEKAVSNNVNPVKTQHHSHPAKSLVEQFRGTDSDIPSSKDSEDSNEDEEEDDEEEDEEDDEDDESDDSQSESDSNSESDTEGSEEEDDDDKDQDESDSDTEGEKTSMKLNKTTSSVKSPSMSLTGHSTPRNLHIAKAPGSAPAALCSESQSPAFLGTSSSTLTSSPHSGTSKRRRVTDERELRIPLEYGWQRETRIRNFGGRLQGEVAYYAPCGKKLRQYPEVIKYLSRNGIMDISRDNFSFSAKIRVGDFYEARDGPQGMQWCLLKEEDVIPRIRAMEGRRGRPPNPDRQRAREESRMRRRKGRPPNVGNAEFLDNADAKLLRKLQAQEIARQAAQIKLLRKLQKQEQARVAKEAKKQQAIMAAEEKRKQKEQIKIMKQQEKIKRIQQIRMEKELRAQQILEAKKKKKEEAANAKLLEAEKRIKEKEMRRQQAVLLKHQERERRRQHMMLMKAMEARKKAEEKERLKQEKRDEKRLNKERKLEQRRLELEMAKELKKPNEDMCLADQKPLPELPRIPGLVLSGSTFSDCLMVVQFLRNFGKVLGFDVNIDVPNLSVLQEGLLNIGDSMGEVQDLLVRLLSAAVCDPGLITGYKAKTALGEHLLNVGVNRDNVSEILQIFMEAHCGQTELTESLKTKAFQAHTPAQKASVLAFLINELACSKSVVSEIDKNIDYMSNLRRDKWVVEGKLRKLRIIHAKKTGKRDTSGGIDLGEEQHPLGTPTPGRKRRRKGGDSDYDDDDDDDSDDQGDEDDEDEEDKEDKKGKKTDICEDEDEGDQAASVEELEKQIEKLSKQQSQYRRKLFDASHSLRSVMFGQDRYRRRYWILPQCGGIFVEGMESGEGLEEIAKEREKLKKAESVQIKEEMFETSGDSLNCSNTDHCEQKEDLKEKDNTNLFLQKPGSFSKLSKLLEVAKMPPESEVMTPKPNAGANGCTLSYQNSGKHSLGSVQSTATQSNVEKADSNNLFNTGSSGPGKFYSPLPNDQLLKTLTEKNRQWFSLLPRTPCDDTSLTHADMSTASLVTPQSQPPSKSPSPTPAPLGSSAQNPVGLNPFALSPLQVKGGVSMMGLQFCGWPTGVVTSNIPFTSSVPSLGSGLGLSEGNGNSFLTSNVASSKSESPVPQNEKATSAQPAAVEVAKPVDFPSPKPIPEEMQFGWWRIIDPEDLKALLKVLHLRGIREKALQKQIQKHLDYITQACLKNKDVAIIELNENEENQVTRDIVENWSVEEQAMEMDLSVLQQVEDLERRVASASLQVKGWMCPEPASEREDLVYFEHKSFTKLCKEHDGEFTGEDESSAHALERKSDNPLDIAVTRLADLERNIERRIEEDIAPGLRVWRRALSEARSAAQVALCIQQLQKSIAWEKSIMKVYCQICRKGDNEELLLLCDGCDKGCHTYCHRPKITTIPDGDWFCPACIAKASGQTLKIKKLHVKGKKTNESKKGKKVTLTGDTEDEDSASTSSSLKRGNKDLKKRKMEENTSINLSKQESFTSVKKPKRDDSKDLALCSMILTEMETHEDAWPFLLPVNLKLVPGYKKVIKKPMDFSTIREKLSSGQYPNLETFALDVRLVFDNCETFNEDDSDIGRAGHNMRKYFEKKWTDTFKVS
Method in brief: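 BAZ2B 50 nM plus b-H3(5-23)K14Ac 50 nM, PBS pH 7.4/0.01% Tween-20, 30 min RT; compound added (max 110 uM), 30 min RT; streptavidin donor/Ni-chelate acceptor beads 10 ug/mL final, 20 min dark; AlphaScreen read.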
Further: nearly all actives have a fitted effect of over 60% in size.
On the % scale 0 is the no-effect control and ±100 the full control effect; potency means the concentration at half of the fitted maximal effect; tags describe the fitted curve by direction and shape.

SMILES	Potency	activity change, negative = inhibition
CN(CCn1ccnc1)Cc1cn(-c2ccccc2)nc1-c1ccc2c(c1)OCO2	inconclusive: 50.1 µM [inhibitor, partial curve]	–
CCc1ccc(N=c2c([N+](=O)[O-])nn(-c3ccc4c(c3)OCCO4)n2O)cc1	active: 25.1 µM	–
CCN1CCN(C(=O)CCNC(=O)Cn2ccc3ccccc3c2=O)CC1	inconclusive: 35.5 µM [inhibitor, single point]	–
CCOc1ccc(C2C(C(=O)Nc3ccccc3)=C(C)N=c3s/c(=C/c4cccc(OCC(=O)O)c4)c(=O)n32)cc1 (stereo not given)	inconclusive: 89.1 µM [inhibitor, single point]	–
COc1ccc2cc(Br)ccc2c1CC(=O)NC1CC(C)(C)NC(C)(C)C1	inconclusive: 0.708 µM [inhibitor, partial curve, poor fit]	–
CC1=Nc2ccccc2/C1=C\c1nc(-c2ccc(F)cc2)oc1O	inconclusive: 70.8 µM [inhibitor, single point]	–
O=C(CNC(=O)c1ccc(Br)o1)Nc1ccc(N2CCCCCC2)cc1	inconclusive: 20 µM [inhibitor, full curve]	–
Cc1sc(-n2c(C)cc(/C=N/n3cnnc3)c2C)c(C#N)c1C	inconclusive: 50.1 µM [inhibitor, partial curve]	–
COc1ccc(-c2nc(N)nc(C)c2-c2ccc(Cl)cc2)c(O)c1	inconclusive: 70.8 µM [inhibitor, single point]	–
CC(=O)Nc1ccc(SCC(=O)c2cc(C)n(-c3ccccc3F)c2C)cc1	active: 44.7 µM	–
Cc1cc(C)cc(NC(=O)Cc2csc(COc3cccc(C)c3)n2)c1	inconclusive: 70.8 µM [inhibitor, single point]	–
Cc1ccc(OCC(=O)NNC(=O)CCc2ccccc2)cc1	inconclusive: 89.1 µM [inhibitor, single point]	–
CCOC(=O)c1cc2c(C)n(-c3ccc(C)cc3)c(C)c2ccc1=O	active: 44.7 µM	–
NC(=O)c1ccc[n+]([C@H]2O[C@@H](COP(=O)([O-])OP(=O)(O)OC[C@H]3O[C@@H](n4cnc5c(N)ncnc54)[C@H](O)[C@@H]3O)[C@H](O)[C@@H]2O)c1	active: 35.5 µM	–
O=C(O)c1cc(-c2ccc(/C=C3\NC(=O)N(c4ccccc4)C3=O)o2)ccc1Cl	active: 79.4 µM	–
CCC(C)[C@H](NS(=O)(=O)c1ccc(C)cc1)C(=O)N1CCC(C(=O)N2CCC(C(=O)OC)CC2)CC1 (stereo not given in full)	–	inactive: -6.33% [at 57.1 µM]
CCCCOc1ccc(C2=NC(c3cccs3)=Nc3ccc(OC)cc3N2)cc1	inconclusive: 6.31 µM [inhibitor, full curve]	–
COc1ccc2nc(NC(=O)CSc3ccccc3)sc2c1	–	inactive: -22.8%
Cc1cc(NC2CCCCC2)nc(-c2ccccc2O)n1	active: 56.2 µM	–
COc1ccccc1C(=O)Nc1nnc(S(=O)(=O)N2CCOCC2)s1	–	inactive: -4.83%
O=S(=O)(NCc1ccccc1)c1ccc(Br)c2nsnc12	–	inactive: -33.2%
CCN(CC)c1ccc(NC(=O)CSc2n[nH]c(-c3ccco3)n2)cc1	active: 39.8 µM	–
CCOC(=O)c1c(C)[nH]c(C)c1S(=O)(=O)NCC(=O)Nc1cccc(SC)c1	inconclusive: 70.8 µM [inhibitor, single point]	–

SMILES	Potency	activity change, negative = inhibition
COc1cccc2sc3ccc(C#CC4(O)CCCCC4)cc3c(=O)c12	inconclusive: 89.1 µM [inhibitor, single point]	–
Cc1nc2c(c(=O)n1Cc1ccco1)c1nc3ccccc3nc1n2Cc1ccccc1	active: 56.2 µM	–
CCCOC(=O)CCCN1C(=O)/C(=C2\SC(=S)N(CCCC(=O)OCCC)C2=O)SC1=S	active: 3.16 µM	–
COc1ccccc1NCc1ccc([N+](=O)[O-])s1	active: 50.1 µM	–
Cc1ccc(NC(=S)NCc2ccc3c(c2)cc(C)n3C)c(C)c1	inconclusive: 10 µM [inhibitor, full curve]	–
O=C(CSCCSCC(=O)c1ccco1)c1ccco1	inconclusive: 89.1 µM [inhibitor, single point]	–
Cc1ccc(S(=O)(=O)NNC(=O)c2sccc2-n2cccc2)cc1	inconclusive: 31.6 µM [inhibitor, partial curve, poor fit]	–
CCOC(=O)c1c(C)oc(NC(=O)COc2ccc(Cl)cc2C)c1C#N	inconclusive: 89.1 µM [inhibitor, single point]	–
NS(=O)(=O)c1cc(C(=O)OCC(=O)Nc2ccccc2[N+](=O)[O-])ccc1Cl	inconclusive: 79.4 µM [inhibitor, single point]	–
CCSc1ccccc1C(=O)N1CCN(c2ccc([N+](=O)[O-])cc2)CC1	inconclusive: 70.8 µM [inhibitor, partial curve]	–
N#C/C(=C\c1ccc(Cl)cc1)c1n[nH]c(Cn2cncn2)n1	inconclusive: 89.1 µM [inhibitor, single point]	–
CN(C)c1ccc(CNC(=O)Cc2ccc(NC(=O)N3CCCCc4ccccc43)cc2)cc1	active: 44.7 µM	–
COc1ccc(N2CCN(CCCNC(=O)c3nnc(Cc4ccc(F)cc4)o3)CC2)cc1	active: 35.5 µM	–
Cc1cccc(Nc2nc(-c3ccccn3)cs2)n1	active: 20 µM	–
COc1ccc(OC)c(CN2CCN(C(=O)c3cccc(S(=O)(=O)Nc4ccc(C)cc4)c3)CC2)c1	inconclusive: 70.8 µM [inhibitor, single point]	–
Cc1ccc2c(CC(=O)Nc3ccc(S(=O)(=O)N4CCCCC4C)cc3)coc2c1C (stereo not given)	inconclusive: 63.1 µM [inhibitor, partial curve, poor fit]	–
CC(C)(C)NC(=O)C(=O)NN=C1CCCCCCC1	–	inactive: -23.6%
CCOC(=O)Cn1c(=O)n(-c2cccc(Cl)c2)c2nc(-c3ccccc3Cl)nc(C(N)=O)c21	–	inactive: -17.3%
COc1cc(C(=S)N2CCOCC2)cc(OC)c1OC(=O)c1ccc(F)cc1	inconclusive: 79.4 µM [inhibitor, single point]	–
Cc1ccsc1/C=N/NC(=O)c1ccccn1	active: 50.1 µM	–
CN1/C(=C/c2cccc[n+]2CCO)Sc2ccccc21	active: 56.2 µM	–
CC(C)CN(C(=O)COC(=O)c1ccc2c(c1)NC(=O)CS2)C1CCS(=O)(=O)C1 (stereo not given)	–	inactive: 11.8%
